# Data from PubChem BioAssay AID662 (National Center for Advancing Translational Sciences (NCATS), 2007).
# Screen size: about 71,000 compounds; about 1,800 (2.5%) were called active. Inconclusive results, whose numbers are uncertain, are shown with a selection of clear calls. Calls follow the shape of the dose curve; as a rule, active = well fitted activation curve with a large enough effect in the signal ratio, with a control signal flat (not every such curve was filed as active); inconclusive = small, poorly fitted or top-dose-only effect, or effect the other way, or a change in a side signal; inactive = flat fitted curve, though single readings scatter; the % refers to the signal ratio. Where the call is inconclusive, the potency comes from a doubtful curve fit.
# Experiment: Cell signaling CRE-BLA (Fsk stim); as to activity change, negative = inhibition: % of control where 0% means no effect
# Details: CHO CRE-bla reporter (cAMP response element driving beta-lactamase), forskolin EC10, beta-lactamase ratio; activity change, negative = inhibition: at 38.2 µM (top of the series) unless noted
# In short: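 The 460nm/530nm emission ratio after CCF4 loading defined %Activity, from which AC50 values were obtained. CRE-bla CHO cells received compound dilution series together with an EC10 level of NKH 477 for 3 hours at 37 degrees Celsius.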
# Potency is read from the fitted curve at half-maximal effect; tags tell the direction and shape of the fitted curve.
SMILES,"activity change, negative = inhibition",Potency
COc1ccc(C(=O)N2CCC[C@@]3(CCN(C(=O)Nc4ccccc4)C3)C2)cc1,inactive,
Cc1ccc(C(=O)C2=C(O)C(=O)N(CCCN3CCOCC3)C23C(=O)N(C)c2ccccc23)o1 (configuration not stated),inactive,
COc1ccc(C2=NOC(C(=O)NCc3ccco3)C2)cc1OC (configuration not stated),,"inconclusive: 3.98 µM [rising, full curve]"
CCOC(=O)CSc1nnc(CNc2nc(-c3ccccc3)cs2)n1C,,"inconclusive: 0.1 µM [falling, single point]"
COc1ccc2c(c1)Sc1ccccc1N2CCN(C)C,inactive,
CCCSc1nnc2nc3c(nn12)c1ccccc1n3C,,"inconclusive: 15.8 µM [rising, partial curve]"
COCCCN=CC1=C(O)CC(C)(C)CC1=O,inconclusive: 1.71%,
Cc1cc2n(n1)C(c1ccccc1Cl)Nc1ccccc1-2 (configuration not stated),,active: 12.6 µM
COc1ccc(-c2nc3cnc(Nc4ccccc4)nc3n(CCC#N)c2=O)cc1,,"inconclusive: 5.01 µM [falling, partial curve]"
CC(C)(C)C1CCc2onc(C(=O)Nc3cccnc3)c2C1 (configuration not stated),,"inconclusive: 7.94 µM [rising, partial curve, poor fit]"
O=C1c2ccccc2C(=O)N1CCCc1nc2ccccc2c(=O)n1Cc1ccco1,,"inconclusive: 3.98 µM [rising, single point]"
CN(C(=O)COc1nnc(-c2cccs2)c(-c2cccs2)n1)c1ccccc1,inconclusive: -20%,
O=S(=O)(NCc1csc(-c2ccccc2)n1)c1ccc(Cl)s1,inconclusive: -15.1%,
Cc1nc2n(n1)CC(O)CS2 (configuration not stated),,"inconclusive: 25.1 µM [falling, single point]"
CC(c1ccccc1F)n1cc(C(=O)NCc2ccncc2)nn1 (configuration not stated),inactive,
CC(C)(C)c1ccc(CN2CCN([C@H](c3ccccc3)c3ccc(Cl)cc3)CC2)cc1,inactive: 1.17% [at 7.6 µM],
COc1cccc(C2CC(=O)NC3=C2C(=O)CCC3)c1 (configuration not stated),inactive,
O=C(NCc1ccco1)C12CC3CC(C1)CC(C(=O)NCc1ccco1)(C3)C2,inconclusive: 11.9% [at 7.6 µM],
COc1ccc(C2C(C#N)=C(N)OC(C(C)(C)C)=C2C#N)cc1OC (configuration not stated),,"inconclusive: 10 µM [rising, partial curve]"
Cc1cccc(N(CC(=O)Nc2c(C)n(C)n(-c3ccccc3)c2=O)S(C)(=O)=O)c1C,inconclusive: -15.7% [at 7.6 µM],
Cc1sc2nc(SCC(=O)N(C)C)[nH]c(=O)c2c1C,inconclusive: 12.3%,

SMILES,"activity change, negative = inhibition",Potency
O=c1c2c3c(sc2nc2n1CCCCC2)CCCC3,,"inconclusive: 10 µM [rising, partial curve]"
CCN(CC)C(=O)N1c2ccccc2CC(N(CC)CC)c2ccccc21 (configuration not stated),,"inconclusive: 25.1 µM [rising, single point]"
c1ccc2c(c1)C(=NCC1CCCO1)NC2=NCC1CCCO1 (configuration not stated),inconclusive: -14.2%,
CC(=O)OC1c2c(ccc3ccc(=O)oc23)OC(C)(C)C1OC(=O)CC(C)C (configuration not stated),inconclusive: 26.5%,
CCCn1c(SCC(=O)Nc2ccccc2N2CCCCC2)nc2c1c(=O)n(C)c(=O)n2C,,"inconclusive: 10 µM [rising, partial curve]"
CCS(=O)(=O)c1ccc2oc(Nc3ccccc3C)nc2c1,inactive,
COc1ccc(NC(=O)Nc2ccc3c(c2)N(C)C(=O)CS3)cc1OC,,"inconclusive: 2.51 µM [rising, full curve, poor fit]"
O=C(Nc1cccc(F)c1)N1CC[C@@]2(CCCN(S(=O)(=O)c3ccccc3)C2)C1,inactive,
CC(C)n1c(SCCCc2ccccc2)nc2c1c(=O)[nH]c(=O)n2C,,active: 6.31 µM
O=C(CCCSc1nnc(-c2cccs2)n1CC1CCCO1)c1ccccc1 (configuration not stated),inconclusive: 4.29%,
COC(=O)Nc1ccc2c(c1)N(C(=O)CCN1CCN3CCCC3C1)c1ccccc1CC2 (configuration not stated),inconclusive: 10.9%,
CC(C)C(OC(=O)CN1C(=O)COc2ccccc21)C(=O)NC1CCCC1 (configuration not stated),inconclusive: -24.9%,
COc1ccccc1-n1nc(C(=O)Nc2ccc3c(c2)OCO3)c2ccccc2c1=O,inconclusive: -17.7%,
COc1ccc(C(=O)CC(=O)O)c2c1C=CC(C)(C)O2,inconclusive: 8.75% [at 7.6 µM],
CC(=O)N1CCc2cc(S(=O)(=O)NCCCN3CCN(Cc4ccccc4)CC3)ccc21,inconclusive: -12.5%,
CCN(Cc1ccccc1)C(=O)Cn1c(=O)n(CC(=O)NCc2ccco2)c(=O)c2sccc21,inconclusive: 0.786%,
CCN(Cc1nc2ccccc2c(=O)[nH]1)Cc1cc(=O)oc2cc(C)c(C)cc12,,"inconclusive: 12.6 µM [rising, single point]"
O=C(c1cc2nc(-c3ccco3)cc(C(F)(F)F)n2n1)N1CCCc2ccccc21,inactive,
CC(C(=O)Nc1ccccc1-c1ccccc1)N1CCN(C(=O)c2ccco2)CC1 (configuration not stated),,"inconclusive: 0.02 µM [rising, full curve, poor fit]"
Cc1cc(C)nc(NS(=O)(=O)c2ccc(Br)cc2)n1,inactive,
CCCCS(=O)(=O)NC1=NCN(CCO)CN1,inconclusive: -3.8%,

SMILES,"activity change, negative = inhibition",Potency
CCCS(=O)(=O)N1CCC(C(=O)N2CCc3ccccc3C2)CC1,inconclusive: 5.89%,
C/C=C/CSc1nc2c(c(=O)[nH]c(=O)n2C)n1Cc1ccc(C)cc1,,active: 7.94 µM
O=C(O)CSc1c2c(nc3cc(C(=O)N4CCOCC4)ccc13)CCCC2,inactive,
N#Cc1c(C(F)(F)F)cc(C2CC2)[nH]c1=O,inactive,
O=c1c(=O)n(O)c2ccccc2n1O,inconclusive: 12%,
Cc1csc(NC(=O)CCN2C(=O)c3ccccc3S2(=O)=O)n1,inactive,
Cn1ncc2c(Nc3ccc4ccccc4c3)ncnc21,inactive,
Cc1sc2ncnc(SCC#N)c2c1C,,"inconclusive: 10 µM [rising, partial curve]"
COc1ccccc1CN1C(=O)C2CC=CCC2C1=O (configuration not stated),inactive,
COc1ccc(-c2cc(-c3ccccc3)nc(N3CCCC3)n2)cc1OC,,active: 3.16 µM
Cc1cccc(C)c1N(CC(=O)N1CCN(C)CC1)S(C)(=O)=O,inactive,
CCc1nnc(NC(=O)CSc2nnc(-c3ccoc3C)n2CC(C)C)s1,inactive,
COc1cccc(Nc2ncc3nc(C)c(=O)n(-c4ccccc4)c3n2)c1,,"inconclusive: 10 µM [rising, partial curve]"
Cc1cccc(-c2nc3ccccc3c3nncn23)c1,inconclusive: 26.6%,
Cc1ccc(-c2nn3c(C)nnc3s2)cc1NC(=O)c1ccc(-c2cccc(Cl)c2)o1,inconclusive: 5.04%,
COC(=O)CN(c1ccc(C)cc1)S(=O)(=O)c1ccc2c(c1)n(C)c(=O)c(=O)n2C,inconclusive: 12.7%,
CN(Cc1ccccc1)C(=O)CCC(=O)N(C)Cc1ccccc1,,"inconclusive: 0.00316 µM [falling, full curve, poor fit]"
COc1ccc(NC(=O)CSc2nnc(-c3ccccc3)n2Cc2ccco2)c(OC)c1,inactive,
CC(C)c1nc(SCC(=O)Nc2ccc3c(c2)OCCO3)c2c(=O)n(C)c(=O)n(C)c2n1,,"inconclusive: 2.51 µM [rising, partial curve]"
Cn1c(=O)c2c(-c3ccccc3)n(-n3cnnc3)cc2n(C)c1=O,,"inconclusive: 25.1 µM [falling, single point]"
CCC(=O)Nc1c(C(=O)N2CCCCCC2)cnn1-c1ccc(C)c(C)c1,inconclusive: 26.3%,

SMILES,"activity change, negative = inhibition",Potency
CC1S/C(=C(\C#N)C(N)=O)N(c2ccc(F)cc2)C1=O (configuration not stated),inconclusive: 1.59%,
COCCn1c(=O)c(-c2cccc(C#N)c2)nc2cnc(Oc3cccc(Cl)c3)nc21,,"inconclusive: 12.6 µM [rising, single point]"
CN(C)c1ccc(C(c2nnnn2C2CCCCC2)N2CCN(C(=O)c3ccco3)CC2)cc1 (configuration not stated),inactive,
CCCCC(CC)C(=O)NCCCN1CCN(CCCNC(=O)C(CC)CCCC)CC1 (configuration not stated),inactive,
O=C(O)c1nccnc1C(=O)Nc1ccc(Br)cn1,inactive,
c1ccc(Nc2nc(-c3cccs3)cs2)nc1,inconclusive: -26.5%,
Cc1nc(N)[nH]c(=O)c1CCC(=O)OCC(C)C,inactive,
CC1=CC(C)(C)Nc2ccccc21,inactive,
Cc1ccc(-c2nn3c(C)nnc3s2)cc1NC(=O)c1ccc(Br)o1,,"inconclusive: 12.6 µM [rising, partial curve]"
Cn1c(=O)oc2cc(S(=O)(=O)NCCN3CCCCCC3)ccc21,inconclusive: -5.75%,
Brc1ccccc1-c1nc(-c2ccccc2)no1,inconclusive: -9.51% [at 7.6 µM],
OCC1N=C(c2ccccn2)OC1c1ccccc1 (configuration not stated),inconclusive: -24.8%,
CCOc1ccc(NC(=O)CCN2CCN(c3ccccc3OC)CC2)cc1,,"inconclusive: 0.0316 µM [falling, full curve, poor fit]"
COc1cccc(Cn2c(=O)c(-c3ccccc3)nc3cnc(N(C)C)nc32)c1,,"inconclusive: 0.631 µM [rising, full curve]"
CS(=O)(=O)c1sc2nc(-c3cccs3)cc(-c3ccccc3)c2c1N,inactive,
O=C(CSc1nc2ccccc2[nH]1)Nc1cc(C(F)(F)F)ccc1N1CCOCC1,,"inconclusive: 12.6 µM [rising, partial curve]"
C=CCNC(=O)c1cc(-c2ccc(Br)cc2)on1,inconclusive: 9.55%,
COc1ccc(-c2nc3cnc(N4CCNCC4)nc3n(-c3ccccc3)c2=O)cc1,,"inconclusive: 1.26 µM [rising, partial curve]"
CC(=O)NS(=O)(=O)c1ccc(NC(=O)c2ccccc2F)cc1,inconclusive: 1.77% [at 7.6 µM],
